Results are given in words; binding and its absence hold for the method and conditions named. For some of these results: Binding seen in cells or lysates may run through a third protein. Some entries that bind do so weakly or less than the wild type. For some of these results: Where a sequence is shown, tags or fusion partners need not be part of it. Values belong to the molecule of their own block, whether it stands above or below them.
Key:
[1] = target: HA-tagged NINL isoform B (human) (UniProt Q9Y2I6); test: co-IP; HEK293T co-transfected; lysis in 50 mM Tris-HCl pH 7.5, 150 mM NaCl, 1% Triton-X-100; HA-tagged NINL isoform B precipitated overnight at 4°C with rat monoclonal anti-HA beads; immunoblot
FLAG-tagged LRRK2 = FLAG-tagged LRRK2 (UniProt Q5S007); test: co-IP; HEK293T co-transfected; lysis in 50 mM Tris-HCl pH 7.5, 150 mM NaCl, 1% Triton-X-100; FLAG-tagged proteins precipitated with anti-FLAG M2 agarose beads; immunoblot
[2] = target: FLAG-tagged CC2D2A (Coiled-coil and C2-domains containing protein 2A) (human) (UniProt Q9P2K1); test: as above
[3] = target: CC2D2A aa 433-637 (coiled-coil domains 1 and 2) fused to the GAL4 DNA binding domain (human) (UniProt Q9P2K1); test: two-hybrid; GAL4-based yeast two-hybrid (Hybrizap), strain PJ69-4A; CC2D2A fused to GAL4-BD as bait, NINL fused to GAL4-AD as prey; growth on media deficient of histidine and adenine, alpha- and beta-galactosidase reactions
[4] = target: eGFP-tagged MICAL3 (Microtubule-associated Monooxygenase, Calponin and LIM domain containing 3 protein) (UniProt Q7RTP6); test: co-IP; HEK293T co-transfected; lysis in 50 mM Tris-HCl pH 7.5, 150 mM NaCl, 1% Triton-X-100; eGFP-tagged MICAL3 (or eGFP) precipitated with anti-GFP polyclonal antibodies coupled to ProtA/G beads; immunoblot
[5] = target: Strep/FLAG-tagged (SF-TAP) NINL isoform B (human) (UniProt Q9Y2I6); test: co-IP; HEK293T co-transfected; lysis in 50 mM Tris-HCl pH 7.5, 150 mM NaCl, 1% Triton-X-100; FLAG-tagged proteins precipitated with anti-FLAG M2 agarose beads; immunoblot
FLAG-tagged STRAD = target: T1, FLAG-tagged STRAD (UniProt Q7RTN6); test: as above
T1 sequence: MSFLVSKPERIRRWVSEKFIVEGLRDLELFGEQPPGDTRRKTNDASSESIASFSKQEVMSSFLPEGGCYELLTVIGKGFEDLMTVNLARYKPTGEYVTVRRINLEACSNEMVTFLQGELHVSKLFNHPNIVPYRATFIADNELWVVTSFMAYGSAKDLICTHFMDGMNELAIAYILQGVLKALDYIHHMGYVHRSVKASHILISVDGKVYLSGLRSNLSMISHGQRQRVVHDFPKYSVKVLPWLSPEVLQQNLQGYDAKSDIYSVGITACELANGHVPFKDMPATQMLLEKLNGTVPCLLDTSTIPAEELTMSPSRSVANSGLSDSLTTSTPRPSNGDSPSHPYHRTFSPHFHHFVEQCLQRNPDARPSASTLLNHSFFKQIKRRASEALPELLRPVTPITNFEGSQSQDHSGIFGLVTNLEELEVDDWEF

Chains of the proteins cited; added tags and fusions are not shown. Lines headed by an entry give the natural chain unless they say otherwise; changes in a name come on top. A line that says so, or that is headed by a name, gives the form on record, which may keep a tag or linker. Residues count along the entry.
UniProt Q9Y2I6: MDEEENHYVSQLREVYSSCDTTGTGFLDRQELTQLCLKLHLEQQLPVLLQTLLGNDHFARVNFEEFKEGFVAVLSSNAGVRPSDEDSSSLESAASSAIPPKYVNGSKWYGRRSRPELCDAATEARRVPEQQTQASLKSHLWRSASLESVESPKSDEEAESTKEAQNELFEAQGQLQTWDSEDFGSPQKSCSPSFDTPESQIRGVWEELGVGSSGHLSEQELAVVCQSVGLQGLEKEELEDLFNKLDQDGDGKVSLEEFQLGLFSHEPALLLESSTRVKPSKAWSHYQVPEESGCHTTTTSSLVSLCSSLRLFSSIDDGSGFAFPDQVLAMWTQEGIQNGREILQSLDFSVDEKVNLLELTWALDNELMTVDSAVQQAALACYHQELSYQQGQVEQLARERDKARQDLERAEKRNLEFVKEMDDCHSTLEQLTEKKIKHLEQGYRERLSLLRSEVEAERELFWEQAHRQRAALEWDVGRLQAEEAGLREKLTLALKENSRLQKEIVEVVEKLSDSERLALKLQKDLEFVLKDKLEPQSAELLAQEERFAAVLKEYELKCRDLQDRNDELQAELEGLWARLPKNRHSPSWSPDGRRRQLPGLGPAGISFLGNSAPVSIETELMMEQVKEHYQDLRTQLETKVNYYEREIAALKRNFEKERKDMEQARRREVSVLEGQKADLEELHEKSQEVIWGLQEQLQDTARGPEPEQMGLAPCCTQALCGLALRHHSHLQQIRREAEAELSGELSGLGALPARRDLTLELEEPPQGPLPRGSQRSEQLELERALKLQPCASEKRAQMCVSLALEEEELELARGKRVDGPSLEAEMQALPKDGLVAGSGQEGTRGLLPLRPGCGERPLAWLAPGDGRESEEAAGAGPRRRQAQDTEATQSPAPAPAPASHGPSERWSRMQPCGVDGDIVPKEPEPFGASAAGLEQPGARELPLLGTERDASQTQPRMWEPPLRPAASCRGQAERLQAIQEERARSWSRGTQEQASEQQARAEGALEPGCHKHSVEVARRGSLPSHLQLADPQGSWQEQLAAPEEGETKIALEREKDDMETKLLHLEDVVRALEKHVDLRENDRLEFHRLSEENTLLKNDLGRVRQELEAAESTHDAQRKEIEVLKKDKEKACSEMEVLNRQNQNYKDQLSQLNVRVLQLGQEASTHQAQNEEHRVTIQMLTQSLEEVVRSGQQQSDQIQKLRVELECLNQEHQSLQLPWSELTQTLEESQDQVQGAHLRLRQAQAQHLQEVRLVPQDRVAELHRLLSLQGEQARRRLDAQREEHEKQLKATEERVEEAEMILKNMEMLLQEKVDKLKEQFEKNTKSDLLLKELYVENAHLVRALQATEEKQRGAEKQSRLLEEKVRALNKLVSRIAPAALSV
Strep/FLAG-tagged (SF-TAP) NINL isoform B (Q9Y2I6-2, form named): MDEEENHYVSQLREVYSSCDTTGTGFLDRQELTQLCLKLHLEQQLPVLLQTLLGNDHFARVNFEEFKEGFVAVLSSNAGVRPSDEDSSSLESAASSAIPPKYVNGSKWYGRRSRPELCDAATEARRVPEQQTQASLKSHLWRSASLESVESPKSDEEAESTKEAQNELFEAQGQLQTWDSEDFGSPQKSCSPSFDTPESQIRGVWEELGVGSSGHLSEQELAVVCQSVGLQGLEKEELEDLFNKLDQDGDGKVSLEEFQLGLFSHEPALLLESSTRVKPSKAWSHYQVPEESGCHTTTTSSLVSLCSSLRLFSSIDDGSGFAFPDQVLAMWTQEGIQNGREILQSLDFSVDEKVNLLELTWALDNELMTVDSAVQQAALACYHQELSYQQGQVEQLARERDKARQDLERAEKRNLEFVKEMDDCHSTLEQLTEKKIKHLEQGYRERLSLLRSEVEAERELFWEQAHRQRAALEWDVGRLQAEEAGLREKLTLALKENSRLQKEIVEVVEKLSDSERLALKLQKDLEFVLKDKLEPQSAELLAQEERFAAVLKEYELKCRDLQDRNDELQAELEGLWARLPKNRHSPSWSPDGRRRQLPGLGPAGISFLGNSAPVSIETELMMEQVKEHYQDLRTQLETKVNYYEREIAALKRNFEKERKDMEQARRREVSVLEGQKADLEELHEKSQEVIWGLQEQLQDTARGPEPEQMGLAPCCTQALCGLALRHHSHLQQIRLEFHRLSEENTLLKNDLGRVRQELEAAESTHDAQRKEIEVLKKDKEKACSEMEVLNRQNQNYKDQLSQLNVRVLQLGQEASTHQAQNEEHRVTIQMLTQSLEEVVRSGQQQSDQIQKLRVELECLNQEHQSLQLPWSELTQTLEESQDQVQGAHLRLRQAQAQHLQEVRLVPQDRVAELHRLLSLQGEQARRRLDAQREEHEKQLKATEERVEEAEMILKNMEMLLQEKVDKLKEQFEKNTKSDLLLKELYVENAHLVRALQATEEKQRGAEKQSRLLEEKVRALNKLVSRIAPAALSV
UniProt Q9P2K1: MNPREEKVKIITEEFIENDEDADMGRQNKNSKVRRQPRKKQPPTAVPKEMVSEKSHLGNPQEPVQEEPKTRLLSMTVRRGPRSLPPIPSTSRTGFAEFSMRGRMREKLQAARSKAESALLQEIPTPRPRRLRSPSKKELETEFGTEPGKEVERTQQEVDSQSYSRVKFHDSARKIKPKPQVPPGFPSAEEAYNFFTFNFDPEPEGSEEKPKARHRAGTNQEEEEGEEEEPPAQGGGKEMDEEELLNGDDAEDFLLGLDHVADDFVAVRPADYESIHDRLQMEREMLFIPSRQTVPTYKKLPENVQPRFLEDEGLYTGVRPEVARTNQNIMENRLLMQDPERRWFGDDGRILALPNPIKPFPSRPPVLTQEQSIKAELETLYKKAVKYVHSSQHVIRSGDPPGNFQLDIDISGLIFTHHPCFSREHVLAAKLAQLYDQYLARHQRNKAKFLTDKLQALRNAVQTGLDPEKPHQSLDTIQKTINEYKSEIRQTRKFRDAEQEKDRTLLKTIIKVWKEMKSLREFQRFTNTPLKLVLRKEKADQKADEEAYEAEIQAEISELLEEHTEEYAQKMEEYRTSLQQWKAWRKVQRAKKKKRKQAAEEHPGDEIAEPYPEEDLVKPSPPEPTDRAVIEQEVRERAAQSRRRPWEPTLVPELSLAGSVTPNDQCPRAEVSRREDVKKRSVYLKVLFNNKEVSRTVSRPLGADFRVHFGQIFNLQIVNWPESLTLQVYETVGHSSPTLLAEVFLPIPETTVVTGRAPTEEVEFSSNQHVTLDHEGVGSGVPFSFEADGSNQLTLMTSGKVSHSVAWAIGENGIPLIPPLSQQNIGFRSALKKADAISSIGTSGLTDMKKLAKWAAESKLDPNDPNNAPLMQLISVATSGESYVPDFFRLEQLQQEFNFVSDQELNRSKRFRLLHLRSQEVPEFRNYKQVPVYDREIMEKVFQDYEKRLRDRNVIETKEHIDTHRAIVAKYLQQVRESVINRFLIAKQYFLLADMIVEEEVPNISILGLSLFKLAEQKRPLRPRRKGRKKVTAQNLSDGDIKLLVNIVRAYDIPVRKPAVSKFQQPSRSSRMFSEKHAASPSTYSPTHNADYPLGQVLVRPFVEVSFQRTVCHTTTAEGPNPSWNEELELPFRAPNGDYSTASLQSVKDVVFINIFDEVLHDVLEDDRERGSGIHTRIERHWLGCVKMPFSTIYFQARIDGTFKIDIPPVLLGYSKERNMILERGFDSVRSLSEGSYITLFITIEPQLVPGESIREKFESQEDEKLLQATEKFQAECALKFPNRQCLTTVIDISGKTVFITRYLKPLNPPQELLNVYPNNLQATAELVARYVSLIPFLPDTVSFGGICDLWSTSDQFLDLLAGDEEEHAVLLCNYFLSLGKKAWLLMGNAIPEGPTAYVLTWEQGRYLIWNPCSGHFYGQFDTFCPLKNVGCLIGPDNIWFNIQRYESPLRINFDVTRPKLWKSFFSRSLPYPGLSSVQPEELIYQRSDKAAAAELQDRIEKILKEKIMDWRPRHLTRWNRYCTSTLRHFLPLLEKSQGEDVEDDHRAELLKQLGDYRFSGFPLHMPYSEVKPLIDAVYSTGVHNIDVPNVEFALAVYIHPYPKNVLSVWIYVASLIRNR
CC2D2A aa 433-637 (coiled-coil domains 1 and 2) fused to the GAL4 DNA binding domain: residues 433-637 of Q9P2K1
UniProt Q7RTP6: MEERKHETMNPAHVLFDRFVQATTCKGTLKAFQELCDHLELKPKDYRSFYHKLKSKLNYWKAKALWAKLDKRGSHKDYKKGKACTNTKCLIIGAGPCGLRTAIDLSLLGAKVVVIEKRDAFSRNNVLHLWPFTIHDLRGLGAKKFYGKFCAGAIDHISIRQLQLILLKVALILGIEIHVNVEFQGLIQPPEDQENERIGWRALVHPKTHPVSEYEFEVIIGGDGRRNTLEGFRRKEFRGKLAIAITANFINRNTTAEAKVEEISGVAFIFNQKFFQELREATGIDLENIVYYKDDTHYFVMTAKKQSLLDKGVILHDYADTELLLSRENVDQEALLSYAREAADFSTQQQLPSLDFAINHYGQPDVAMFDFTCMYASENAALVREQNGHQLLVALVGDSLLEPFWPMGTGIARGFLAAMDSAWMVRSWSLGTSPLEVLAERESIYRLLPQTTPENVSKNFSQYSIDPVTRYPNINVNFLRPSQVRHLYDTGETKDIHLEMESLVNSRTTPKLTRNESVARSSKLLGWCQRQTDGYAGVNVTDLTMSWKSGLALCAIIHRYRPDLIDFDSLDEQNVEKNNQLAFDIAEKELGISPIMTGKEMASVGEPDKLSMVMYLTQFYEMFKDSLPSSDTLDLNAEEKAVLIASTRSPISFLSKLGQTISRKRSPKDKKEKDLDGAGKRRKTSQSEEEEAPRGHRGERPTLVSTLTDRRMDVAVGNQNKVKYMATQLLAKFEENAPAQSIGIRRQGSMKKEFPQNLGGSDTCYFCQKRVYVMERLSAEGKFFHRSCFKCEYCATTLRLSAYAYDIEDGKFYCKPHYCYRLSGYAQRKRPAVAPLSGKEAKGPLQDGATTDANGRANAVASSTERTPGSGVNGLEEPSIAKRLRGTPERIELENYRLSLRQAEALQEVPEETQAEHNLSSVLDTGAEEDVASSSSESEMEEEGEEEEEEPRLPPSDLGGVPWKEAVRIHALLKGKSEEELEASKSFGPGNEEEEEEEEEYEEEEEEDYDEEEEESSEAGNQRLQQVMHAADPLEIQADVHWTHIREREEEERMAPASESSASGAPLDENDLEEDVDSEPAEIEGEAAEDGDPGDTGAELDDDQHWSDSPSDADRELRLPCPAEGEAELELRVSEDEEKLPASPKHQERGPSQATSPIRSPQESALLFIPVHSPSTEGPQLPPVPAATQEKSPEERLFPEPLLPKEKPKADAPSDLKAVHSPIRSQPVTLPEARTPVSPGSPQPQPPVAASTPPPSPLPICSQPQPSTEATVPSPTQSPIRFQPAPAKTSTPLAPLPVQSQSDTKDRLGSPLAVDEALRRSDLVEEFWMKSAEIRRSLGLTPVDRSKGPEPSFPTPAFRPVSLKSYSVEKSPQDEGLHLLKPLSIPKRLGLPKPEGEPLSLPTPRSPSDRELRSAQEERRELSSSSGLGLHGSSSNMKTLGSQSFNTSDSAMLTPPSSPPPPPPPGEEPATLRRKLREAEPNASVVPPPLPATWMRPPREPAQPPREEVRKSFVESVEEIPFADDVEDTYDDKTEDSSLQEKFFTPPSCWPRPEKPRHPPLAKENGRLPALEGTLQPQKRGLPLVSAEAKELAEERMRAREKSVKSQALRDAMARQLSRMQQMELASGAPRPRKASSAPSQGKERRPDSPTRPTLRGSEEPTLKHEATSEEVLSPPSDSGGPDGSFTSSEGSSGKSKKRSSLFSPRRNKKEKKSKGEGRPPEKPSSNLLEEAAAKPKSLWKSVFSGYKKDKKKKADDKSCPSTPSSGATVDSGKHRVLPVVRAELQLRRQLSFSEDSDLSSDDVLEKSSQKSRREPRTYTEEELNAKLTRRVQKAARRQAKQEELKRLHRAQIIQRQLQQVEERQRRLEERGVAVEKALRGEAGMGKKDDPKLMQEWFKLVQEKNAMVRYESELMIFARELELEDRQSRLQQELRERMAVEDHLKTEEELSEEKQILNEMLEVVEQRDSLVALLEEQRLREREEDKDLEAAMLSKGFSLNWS

binding [1]: binds
Molecule: FLAG-tagged CC2D2A (Coiled-coil and C2-domains containing protein 2A) (from UniProt Q9P2K1-4 1-1620)

binding [1]: no binding
Molecule: FLAG-tagged LRRK2 (from UniProt Q5S007 1-2527)

binding [3]: binds
Molecule: NINL (Ninein-like protein) isoform B fused to the GAL4 activation domain (from UniProt Q9Y2I6-2 1-1033)

binding [4]: binds
Molecule: Strep/FLAG-tagged (SF-TAP) NINL isoform B (from UniProt Q9Y2I6-2 1-1033)

The next lines start with the molecule.

Molecule: HA-tagged NINL isoform B (from UniProt Q9Y2I6-2 1-1033)
binding (FLAG-tagged LRRK2): no binding
binding [2]: binds

Molecule: NINL (Ninein-like protein) isoform A fused to the GAL4 activation domain (from UniProt Q9Y2I6 1-1382)
binding [3]: binds

Molecule: eGFP-tagged MICAL3 (Microtubule-associated Monooxygenase, Calponin and LIM domain containing 3 protein) (from UniProt Q7RTP6 1-2002)
binding [5]: binds
binding (FLAG-tagged STRAD): no binding

B1: FLAG-tagged STRAD (protein, UniProt Q7RTN6 1-431)
chain: MSFLVSKPERIRRWVSEKFIVEGLRDLELFGEQPPGDTRRKTNDASSESIASFSKQEVMSSFLPEGGCYELLTVIGKGFEDLMTVNLARYKPTGEYVTVRRINLEACSNEMVTFLQGELHVSKLFNHPNIVPYRATFIADNELWVVTSFMAYGSAKDLICTHFMDGMNELAIAYILQGVLKALDYIHHMGYVHRSVKASHILISVDGKVYLSGLRSNLSMISHGQRQRVVHDFPKYSVKVLPWLSPEVLQQNLQGYDAKSDIYSVGITACELANGHVPFKDMPATQMLLEKLNGTVPCLLDTSTIPAEELTMSPSRSVANSGLSDSLTTSTPRPSNGDSPSHPYHRTFSPHFHHFVEQCLQRNPDARPSASTLLNHSFFKQIKRRASEALPELLRPVTPITNFEGSQSQDHSGIFGLVTNLEELEVDDWEF
binding [4]: no binding

— paper PMC4617701
